# Measured values reported in the supplement of paper PMC9588766.
# Structures can show the parent of a compound that is named as a salt. The full ranking holds about 1,900 compounds; the median of “cell viability of compound + 1 nM pemigatinib relative to pemigatinib-only (DMSO) wells” is about 0.95, and the lowest 2% start at about 0.22. This is one part of the list.
# Test system: PDC-DUC18828
# Assay: cell viability of compound + 1 nM pemigatinib relative to pemigatinib-only (DMSO) wells (fraction); PDC-DUC18828 is a patient-derived cholangiocarcinoma cell line; higher = less growth inhibition
# Conditions: first compound 1 µM; pemigatinib concentration 1 nM; 72 h
# Protocol: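 Selleck Bioactive library screen in the patient-derived FGFR2 fusion-positive ICC cell line PDC-DUC18828 (500 cells/well). Each compound was tested at 1 uM with 1 nM pemigatinib, in triplicate, for 72 h. Viability was read by CellTiter-Glo and normalised to plate DMSO controls. Value is the paper's averaged normalised viability.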
row,Compound,cell viability
1,CC(C)(C#N)c1cc(Cn2cncn2)cc(C(C)(C)C#N)c1 [Anastrozole] + CCN1C(=O)N(c2c(F)c(OC)cc(OC)c2F)Cc2cnc3[nH]c(CN4CCOCC4)cc3c21 [pemigatinib],0.981
2,C[C@@H](O)[C@H]1C(=O)N2C(C(=O)O)=C(S[C@@H]3CN[C@H](CNS(N)(=O)=O)C3)[C@H](C)[C@H]12 [Doripenem Hydrate] + CCN1C(=O)N(c2c(F)c(OC)cc(OC)c2F)Cc2cnc3[nH]c(CN4CCOCC4)cc3c21 [pemigatinib],0.992
3,COc1cccc(-n2c(=O)[nH]c3cc(Cl)n(-c4ccc(-c5cccc(OC)c5O)cc4)c3c2=O)c1 + CCN1C(=O)N(c2c(F)c(OC)cc(OC)c2F)Cc2cnc3[nH]c(CN4CCOCC4)cc3c21 [pemigatinib],0.951
4,COc1cccc(-c2cc(=O)c3ccccc3o2)c1N + CCN1C(=O)N(c2c(F)c(OC)cc(OC)c2F)Cc2cnc3[nH]c(CN4CCOCC4)cc3c21 [pemigatinib],0.929
5,CN(C)CCOC(C)(c1ccccc1)c1ccccn1 (centres undefined) [Doxylamine Succinate] + CCN1C(=O)N(c2c(F)c(OC)cc(OC)c2F)Cc2cnc3[nH]c(CN4CCOCC4)cc3c21 [pemigatinib],0.946
6,C=CCNC(N)=S [Allylthiourea] + CCN1C(=O)N(c2c(F)c(OC)cc(OC)c2F)Cc2cnc3[nH]c(CN4CCOCC4)cc3c21 [pemigatinib],0.985
7,CNC(=O)c1cccc(-c2ccc3c(N4CCOC[C@@H]4C)nc(N4CCOC[C@@H]4C)nc3n2)c1 + CCN1C(=O)N(c2c(F)c(OC)cc(OC)c2F)Cc2cnc3[nH]c(CN4CCOCC4)cc3c21 [pemigatinib],0.255
8,Nc1ccn([C@H]2CC[C@@H](CO)O2)c(=O)n1 [Zalcitabine] + CCN1C(=O)N(c2c(F)c(OC)cc(OC)c2F)Cc2cnc3[nH]c(CN4CCOCC4)cc3c21 [pemigatinib],1.01
9,CCc1cc(Nc2nccc(-c3c(-c4ccc(OC)c(C(=O)Nc5c(F)cccc5F)c4)nc4ccccn34)n2)c(OC)cc1N1CCC(N2CCN(S(C)(=O)=O)CC2)CC1 + CCN1C(=O)N(c2c(F)c(OC)cc(OC)c2F)Cc2cnc3[nH]c(CN4CCOCC4)cc3c21 [pemigatinib],1.01
10,CNC[C@H](O)c1ccc(O)c(O)c1 [Epinephrine HCl] + CCN1C(=O)N(c2c(F)c(OC)cc(OC)c2F)Cc2cnc3[nH]c(CN4CCOCC4)cc3c21 [pemigatinib],0.879
11,CNC[C@H](O)c1ccc(O)c(O)c1 [Epinephrine Bitartrate] + CCN1C(=O)N(c2c(F)c(OC)cc(OC)c2F)Cc2cnc3[nH]c(CN4CCOCC4)cc3c21 [pemigatinib],0.983
12,O=C(NCc1ccccc1)c1csc(Nc2ccncn2)n1 [Thiazovivin] + CCN1C(=O)N(c2c(F)c(OC)cc(OC)c2F)Cc2cnc3[nH]c(CN4CCOCC4)cc3c21 [pemigatinib],0.977
13,CC(S)C(=O)NCC(=O)O (centres undefined) [Tiopronin] + CCN1C(=O)N(c2c(F)c(OC)cc(OC)c2F)Cc2cnc3[nH]c(CN4CCOCC4)cc3c21 [pemigatinib],0.974
14,CNCc1ccc(-c2cc(-c3nc(-c4ccc(S(=O)(=O)C(C)C)cc4)cnc3N)on2)cc1 + CCN1C(=O)N(c2c(F)c(OC)cc(OC)c2F)Cc2cnc3[nH]c(CN4CCOCC4)cc3c21 [pemigatinib],0.87
15,CN1CCN(CCCN2c3ccccc3Sc3ccc(C(F)(F)F)cc32)CC1 [Trifluoperazine 2HCl] + CCN1C(=O)N(c2c(F)c(OC)cc(OC)c2F)Cc2cnc3[nH]c(CN4CCOCC4)cc3c21 [pemigatinib],0.829
16,CC[C@H](C)[C@H](N)C1=N[C@H](C(=O)N[C@@H](CC(C)C)C(=O)N[C@H](CCC(=O)O)C(=O)N[C@H](C(=O)N[C@H]2CCCCNC(=O)[C@H](CC(N)=O)NC(=O)[C@@H](CC(=O)O)NC(=O)[C@H](Cc3cnc[nH]3)NC(=O)[C@@H](Cc3ccccc3)NC(=O)[C@H]([C@@H](C)CC)NC(=O)[C@@H](CCCN)NC2=O)[C@@H](C)CC)CS1 [Bacitracin] + CCN1C(=O)N(c2c(F)c(OC)cc(OC)c2F)Cc2cnc3[nH]c(CN4CCOCC4)cc3c21 [pemigatinib],0.961
17,O=C(CCc1ccc(O)cc1)c1c(O)cc(O)cc1O [Phloretin] + CCN1C(=O)N(c2c(F)c(OC)cc(OC)c2F)Cc2cnc3[nH]c(CN4CCOCC4)cc3c21 [pemigatinib],0.98
18,OC(CNCC(O)C1CCc2cc(F)ccc2O1)C1CCc2cc(F)ccc2O1 (centres undefined) [Nebivolol] + CCN1C(=O)N(c2c(F)c(OC)cc(OC)c2F)Cc2cnc3[nH]c(CN4CCOCC4)cc3c21 [pemigatinib],1.03
19,CN(CC(=O)N(Cc1ccc(C2CCCCC2)cc1)c1ccc(C(=O)O)cc1)S(=O)(=O)c1c(F)c(F)c(F)c(F)c1F + CCN1C(=O)N(c2c(F)c(OC)cc(OC)c2F)Cc2cnc3[nH]c(CN4CCOCC4)cc3c21 [pemigatinib],0.809
20,CCc1nc(N)nc(N)c1-c1ccc(Cl)cc1 [Pyrimethamine] + CCN1C(=O)N(c2c(F)c(OC)cc(OC)c2F)Cc2cnc3[nH]c(CN4CCOCC4)cc3c21 [pemigatinib],0.95
21,Cc1c(C(=O)NN2CCCCC2)nn(-c2ccc(Cl)cc2Cl)c1-c1ccc(I)cc1 + CCN1C(=O)N(c2c(F)c(OC)cc(OC)c2F)Cc2cnc3[nH]c(CN4CCOCC4)cc3c21 [pemigatinib],0.926
22,CC(C)NCC(O)COc1ccc(CCOCC2CC2)cc1 (centres undefined) [Betaxolol] + CCN1C(=O)N(c2c(F)c(OC)cc(OC)c2F)Cc2cnc3[nH]c(CN4CCOCC4)cc3c21 [pemigatinib],0.97
23,CN1CC(=O)N2[C@H](c3ccc4c(c3)OCO4)c3[nH]c4ccccc4c3C[C@@H]2C1=O [Tadalafil] + CCN1C(=O)N(c2c(F)c(OC)cc(OC)c2F)Cc2cnc3[nH]c(CN4CCOCC4)cc3c21 [pemigatinib],1.03
24,CCN(C(=O)c1c(O)c2c(Cl)cccc2n(C)c1=O)c1ccccc1 [Laquinimod] + CCN1C(=O)N(c2c(F)c(OC)cc(OC)c2F)Cc2cnc3[nH]c(CN4CCOCC4)cc3c21 [pemigatinib],1.02
